For one experiment, the target named is GST-mDia1(FH1FH2) (Mus musculus, UniProt O08808). The experiment in a line: TIRF microscopy of filaments assembled from formin immobilized on beads. To be noted: read-out: half-maximal inhibition of the average number of filaments per bead.
The next experiment relates to Arp2/3 complex. The experiment in a line: actin polymerization stimulated with Arp2/3 complex. To be noted: high concentrations of SMIFH2.
The target in another experiment is Fus1 (Schizosaccharomyces pombe, UniProt Q10719). The experiment in a line: pyrene-actin assembly fluorescence. It counts as biochemical. The following applies: 2.5 μM actin monomer, 10 nM formin, pH 7.0.
For the next experiment, the target named is Bni1 (Saccharomyces cerevisiae, UniProt P41832). The experiment in a line: pyrene-actin assembly fluorescence. It counts as biochemical. To be noted: 2.5 μM actin monomer, 75 nM formin, pH 7.0.

pIC50: −log10 of the molar value.

As to `O=C1NC(=S)N(c2cccc(Br)c2)C(=O)/C1=C/c1ccco1` [SMIFH2], on GST-mDia1(FH1FH2), the pIC50 was around 4.82. Also, the “actin polymerization stimulated with Arp2/3 complex” value in the experiment with Arp2/3 complex is recorded as “did not eliminate”.

For `O=C1NC(=S)N(c2cccc(Br)c2)C(=O)C1=Cc1ccco1` [compound 1, SMIFH2], the “maximum polymerization rate at 50 μM” value is “C. elegans CYK-1, S. pombe Cdc12, S. pombe Fus1” at Fus1; “S. pombe Fus1, S. cerevisae Bni1 and M. musculus mDia2” on Bni1.
